To fix the notation:
B1: chr14:100882551:100882663:-|CDS|ENSG00000254656|unk|FALSE|unique (ssRNA)
RNA: GGGAGUUCUACAGUCCGACGAUCGCUCUCCCCAGACCCUAUCAUACCUCAGAACGUGAUUCACUUCAUCCUAAAGGACAUGCUAGGGUUCUUUGUGCUUUCUUAUGGCCAGGAAGUCCUGAUCUACUCAAUGAGUCAGGAGGACAACAGAGGAUUGAGCAUCA
B2: chr1:26281289:26281390:+|3pUTR|ENSG00000142669|msi1_unk|total|mutant (ssRNA)
RNA: GGGAGUUCUACAGUCCGACGAUCUCCCUCCUCUCUAAAUGCCGUCCCCUCUCCUCCAUCUAAAGGCAACAUUCCUUACCCAUCCGUCUCAGAAAUUGUCUUAAGCAACAGCCCCAAAUGCUGGCUGCCCCCAGCCAAGCAUUGCAACAGAGGAUUGAGCAUCA
B3: chr12:76028832:76028933:-|3pUTR|ENSG00000139289|msi1|total|mutant (ssRNA)
RNA: GGGAGUUCUACAGUCCGACGAUCAAAGGAAAAGACUGGAUAAACACAGGAUUUUCAGUAAGAAAACAACCCCAGUCUUGUCUCCGAAGCCACUUGUUGAGGAGUCUGUUGGGGGAAAAAAGAGGAUAUGCUUUUAAAGGCCGACAACAGAGGAUUGAGCAUCA
B4: chr11:85958428:85958534:-|3pUTR|ENSG00000073921|unk|total|mutant (ssRNA)
RNA: GGGAGUUCUACAGUCCGACGAUCAGAAACAAUAACUGAAAUUAACUUUUCUUUUUUUAAAAAAAAUUAUAUUCAGUUUGCAGCCGACAUUCCUUAAGUAUUUGUAUUUAUUUAUGAUUAUCAAUUUUACAUAACAUUAAUAUUCAACAGAGGAUUGAGCAUCA
B5: chr6:132296306:132296407:-|3pUTR|ENSG00000079931|msi1|total|mutant (ssRNA)
RNA: GGGAGUUCUACAGUCCGACGAUCAUGGGAAACACCGAAAUGGUAUGUAUUAAUAACUGAUCACCGGCUGAGGAGAAAAAAUGCCGCUGGCUGCAAACCCAGUGCUGUGAGGUGACUUAUAUGAGGUUCCAGAUCAAAGACAGGCAACAGAGGAUUGAGCAUCA
B6: chr12:102417490:102417817:-|three_prime_utr|ENSG00000017427|control|control|control (ssRNA)
RNA: GGGAGUUCUACAGUCCGACGAUCACAGAGGCAAGGAUGAUGAGAGAGGAGCAGACAGCAAGAAUGAAAAGCAGAAAAUACAAUAGAGGAAAUGAAGAAAAGUAGGCCUGCUGGAGCUAGAUGAUGAUGUGAUGGAAAUAGAAGCAACAGAGGAUUGAGCAUCA
B7: chr17:18327447:18327548:+|3pUTR|ENSG00000176994|msi1|total|mutant (ssRNA)
RNA: GGGAGUUCUACAGUCCGACGAUCGUCAACUCACAGAUUCUGCAGCAGCUGCUCCACCCACAAUAAAGCAAACGCCGACAGGCCCGACCCCAGAUUGCAGGGGCUGCCACCUACAAGGUGGGACCACAGGCUGCCUCACCGGGACAACAGAGGAUUGAGCAUCA
B8: chr16:74503563:74503676:-|CDS|ENSG00000090863|unk|FALSE|bound_elsewhere (ssRNA)
RNA: GGGAGUUCUACAGUCCGACGAUCGGCAACAUCACUGAGUAUCAGUGUCACCAGUACAUUACCAAGAUGACGGCCAUCAUUUUUAGUGAUUACCGUUUAAUCUGUGGCUUCAUGGAUGACUGCAAAAAUGACAUCAACAUUCUGCAACAGAGGAUUGAGCAUCA
B9: chr1:34868604:34869089:-|CDS|ENSG00000116544|control|control|control (ssRNA)
RNA: GGGAGUUCUACAGUCCGACGAUCGCCCCCACCCCCGGCCCUGGGGCCGGCCGCCGUGACUCCUGGAUAGAGCGCGGUUCACGUAGCCUCCCCGACUCAGGCCGCGCAUCCCCCUGCCCACGCGACGGCGAGUGGUUCAUCAAGCAACAGAGGAUUGAGCAUCA
B10: chr1:225495143:225495244:-|3pUTR|ENSG00000154380|msi1|total|mutant (ssRNA)
RNA: GGGAGUUCUACAGUCCGACGAUCACAUUAUUAUGAUGGUUUUUGUGCUCUUGUACGUUGGAUGUCUUAAGCUGAGUACAGUUCCGGGGAUCCUUUCUAAUGACAGGAAGGCACUGCUUUCCUCAACACUGUGAUCUGACCUGUCAACAGAGGAUUGAGCAUCA
B11: chr20:11926050:11926151:+|3pUTR|ENSG00000132640|msi1|FALSE|unique (ssRNA)
RNA: GGGAGUUCUACAGUCCGACGAUCAUGAAAUGGAAUGAAGGCUAAUAUGCUUGCUUUAUUUACUUUUGUAAUCUUGGAUUUUGUAGCUUUUAAAACUAGAAACCAUUGUUCUAACAAAGCAGGCAACUUUAUUCUAUAAACACACAACAGAGGAUUGAGCAUCA
B12: chr12:49763637:49763739:+|3pUTR|ENSG00000139644|msi1_unk|total|mutant (ssRNA)
RNA: GGGAGUUCUACAGUCCGACGAUCAUGUGUAUCAAGGUACAGCAUCGCCGGGUUCCCCUAAACUUGCCCUGUUUUUGUUUUUUCCGUUUGUUAUCCCCUUACUGAGCGGCCUCUACCCGGUGGCUGUGAUUAAAUGUCCCAAGCCAACAGAGGAUUGAGCAUCA
B13: chr7:5620113:5620210:-|3pUTR|ENSG00000011275|msi1_unk|total|mutant (ssRNA)
RNA: GGGAGUUCUACAGUCCGACGAUCGUCACUUUGUAUAAAAACAAGAAACGAUCCGUUCAUUAAACUUUUUCUUUACCUUCUGGCCGUAAAAACCGAUAAAAUAAUUCCGUUUCAACUACUGUGUGUAAAAAGCCUGUAUCAUAUCAACAGAGGAUUGAGCAUCA
B14: chr1:17407970:17408071:-|3pUTR|ENSG00000179051|msi1|total|mutant (ssRNA)
RNA: GGGAGUUCUACAGUCCGACGAUCGGGUACCGUUCUGCUGACCCAGCUCCCUUCCGUCACGUUUGCUUGGCUCUGGUACCAAACCGUUGGGAUUACCGAAGAGUCCCCUUCCUUGCGUGUCAGCACGGAUGCUGUGACUGCCACCAACAGAGGAUUGAGCAUCA
B15: ENSG00000198589:be:win_9701|3pUTR|ENSG00000198589|bound_else_gene|NA|bound_elsewhere_windowed (ssRNA)
RNA: GGGAGUUCUACAGUCCGACGAUCCAAGGAUUUGGAAUGAACAAUUCAGUUUGACAGAAAAAGCUGAAUAAAAUGGCAUCUGUAAUUGAAUUGUUGGAAAUGCCUUUUUUGCUCCUAAAUUUUAAACAUCAUUAAUAAAAUAAUCAACAGAGGAUUGAGCAUCA
B16: ENSG00000077232:stop:overlap|stop_codon|ENSG00000077232|stop_codon|NA|stop_codon (ssRNA)
RNA: GGGAGUUCUACAGUCCGACGAUCUGUUGGUUAAUAUCUUUCAUCAGUUGUGGAAACCUGUCAGCUGGAUGGUCUUGUUAAUGUAGGAUGGAUGGACUGUGCCACCCAGGAUAACCUUUGUAAAAGCUUAGAUAUUACAACAAGCAACAGAGGAUUGAGCAUCA
B17: chr13:52461607:52461862:+|CDS|ENSG00000136108|unk|total|mutant (ssRNA)
RNA: GGGAGUUCUACAGUCCGACGAUCGUUACAAUCCGGAAAGGGCCUCAUGAAAAAGAACUAUUACAAUCAAAAACAGCUUUAUCCCGUGUCAAAACCAGUUCUUCUCAAGGUAUAAUAAGAAAUAAGACUCUAUCAAGAUCCAUACAACAGAGGAUUGAGCAUCA
B18: chr1:85267750:85267865:-|CDS|ENSG00000142867|unk|FALSE|unique (ssRNA)
RNA: GGGAGUUCUACAGUCCGACGAUCAGGAGAAUCCAGCACGACGCCCUUUUUUUCUACUAAUUCUUCUCUGAAUUUGCCUGUUCUAGAAGUAGGCAGAACUGAAAAUACCAUCUUCUCUUCAACUACACUUCCCAGACCUGGGGACAACAGAGGAUUGAGCAUCA
B19: chr5:72208839:72208948:+|3pUTR|ENSG00000131711|msi1_unk|FALSE|overlapping (ssRNA)
RNA: GGGAGUUCUACAGUCCGACGAUCCUUGCCUCUCUUUAGUCACCUGUCACAGGAGGUUCCUGCUCAGUAAUGAUAUUGUGAGUUAGGAUAAUAACUUUUUUUUUUUGUGCUUCAGAUUUAGAAGAAAAGAUCCUGUUUCCAUUUCAACAGAGGAUUGAGCAUCA
B20: chr14:92797766:92797867:+|CDS|ENSG00000066455|msi1|total|mutant (ssRNA)
RNA: GGGAGUUCUACAGUCCGACGAUCCAUUUUGUGCGAAGAAAAAAGUCAGAACCUGAUGAUGAGCUGCUGUUUGAUUUUCUUAACCGUUCACAGAAGGAGCCUACCGGGAGGGUGGAAAUCAGAAAGGAAAAAGGCAAGACACCUCAACAGAGGAUUGAGCAUCA
B21: chr18:68676332:68676434:-|3pUTR|ENSG00000166479|msi1_unk|total|mutant (ssRNA)
RNA: GGGAGUUCUACAGUCCGACGAUCAUCAAGAUUAUGAGGUUAAAAAUAAUGUGGUUUUAUACCGCACCGUGGUUUUAUUUUGUCCGUUAUUUUUAAAGGAGAAGAAAUGUUACUUUUUAACUUUAUACUCAGUUGCAUUAUCAUCAACAGAGGAUUGAGCAUCA
B22: ENSG00000107863:be:win_2001|CDS|ENSG00000107863|bound_else_gene|NA|bound_elsewhere_windowed (ssRNA)
RNA: GGGAGUUCUACAGUCCGACGAUCAAGGACUGACAGUGCCCCCGAUCAGCAAGUGGAGACUGGGAAAUCCCCCUCUUUAUCUGGAGCCUCUGCCAAGCCUGCCCCUCAGUCGAGUGAAAACGCUGGUACUUCAGAUUUAGAACUCAACAGAGGAUUGAGCAUCA

The list shows a part of the results.

The test deals with T1, UNK ZnF1-6 (called full-length) (human, UniProt Q9C0B0 30-357).
T1 sequence: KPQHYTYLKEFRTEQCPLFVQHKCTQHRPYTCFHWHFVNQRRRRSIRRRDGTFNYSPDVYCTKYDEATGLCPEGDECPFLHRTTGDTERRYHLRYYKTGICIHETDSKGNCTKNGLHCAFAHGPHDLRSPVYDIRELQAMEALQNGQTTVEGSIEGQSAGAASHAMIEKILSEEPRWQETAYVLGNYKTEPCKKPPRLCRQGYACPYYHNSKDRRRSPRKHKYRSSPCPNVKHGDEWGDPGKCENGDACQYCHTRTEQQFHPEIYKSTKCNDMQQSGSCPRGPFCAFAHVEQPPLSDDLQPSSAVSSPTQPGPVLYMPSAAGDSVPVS
The test can be described thus: nsRBNS (natural sequence RNA bind-n-seq); RBNS binding buffer (assumed for nsRBNS): 25 mM Tris pH 7.5, 150 mM KCl, 3 mM MgCl2, 0.01% Triton X-100, 500 ug/ml BSA, 20 U/ml SUPERase-In, 4 C; UNK is unkempt and MSI1 is Musashi-1; names of the RNAs are library labels; protein concentration not given here; high values mean tight binding.
B1 returned a binding signal of 0.485 enrichment R.
To B2 belongs 0.853 enrichment R.
The figure for B3 is 0.52 enrichment R; for B4 it is 1.32 enrichment R.
To B5 belongs 0.59 enrichment R.
As to B6, the binding signal stood at 1.21 enrichment R.
To B7 belongs 0.911 enrichment R.
To B8 belongs 0.29 enrichment R; to B9, 0.971 enrichment R; to B10, 0.429 enrichment R.
With B11, the binding signal turned out to be 0.616 enrichment R.
To B12 belongs 0.652 enrichment R.
To B13 belongs 0.387 enrichment R; to B14, 0.631 enrichment R.
To B15 belongs 0.976 enrichment R.
As to B16, the binding signal was determined as 1.47 enrichment R.
The figure for B17 is 0.555 enrichment R; for B18 it is 0.504 enrichment R; for B19 it is 0.772 enrichment R.
Consider B20, for which the binding signal came out at 0.771 enrichment R.
To B21 belongs 0.363 enrichment R; to B22, 0.889 enrichment R.

(Values after publication PMC12136788.)
